Test results reported in PubChem BioAssay AID1347120 (National Center for Advancing Translational Sciences (NCATS), 2019).
Out of some 390,000 compounds screened, about 930 (0.24%) were called active. Inconclusive means that the source gave no clear call. Such entries were picked first, then a sample of the others. The call rests on the fitted dose curve; in most records, active means well fitted activation curve with a large enough effect; inconclusive means small, poorly fitted or top-dose-only effect; inactive means no such curve, though single readings can be large or run the other way. A potency beside an inconclusive call is a rough fit, not a confirmed value.
Potency means the concentration at half of the fitted maximal effect; tags describe the fitted curve by direction and shape.

Test: qHTS for Suppressors of FUS Proteinopathy: Primary screen using FUS-linked yeast assay; further: nearly all actives have a fitted effect of over 55% in size;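 on growth rescue (activation): plate controls were DMSO vehicle for no effect and reference control for full effect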
Settings: S. cerevisiae FUS-expressing, OD600, 24 h; Potency: growth rescue; growth rescue (activation): at 76.6 µM (top of the series)
Summary of the method: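 S. cerevisiae expressing FUS from galactose induction served as the toxicity model. Growth after 24hr at 30C, read as absorbance at 600 nm, indicates suppression of toxicity; compounds dosed at several concentrations.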
With `CCc1nc2sc3ccccc3c(=O)c2c(=O)n1Cc1ccco1` the Potency was active: 31.6 µM.
For `CCN(CC)S(=O)(=O)c1cccc(NC(=O)CCNC(=O)NC23CC4CC(CC(C4)C2)C3)c1`, the Potency was inconclusive: 28.2 µM [activator, partial curve, poor fit].
With `CCc1ccc(N=c2c([N+](=O)[O-])nn(-c3ccc4c(c3)OCCO4)n2O)cc1` the “growth rescue (activation)” value was inactive: 16.8%.
In the case of `COc1cccc(-c2nc(SCC(=O)Nc3ccc4c(c3)OCO4)c(-c3ccccc3)[nH]2)c1`, the Potency is reported as inconclusive: 31.6 µM [activator, single point].
With `O=C(NNS(=O)(=O)c1cccc(Cl)c1)c1cc(-c2ccc(F)cc2)nc2ccccc12` the Potency was inconclusive: 15.8 µM [activator, partial curve, poor fit].
For `Cc1ccc(CSC2=Nc3ccccc3C3=NC(CCC(=O)N4CCN(c5ccccc5)CC4)C(=O)N23)cc1` (stereo unspecified), the Potency was inconclusive: 17.8 µM [activator, partial curve, poor fit].
In the case of `CC(=O)N1N=C(c2c(-c3ccccc3)c3cc(Br)ccc3[nH]c2=O)CC1c1ccco1` (stereo unspecified), the “growth rescue (activation)” value is reported as inactive: 30.3%.
For `COc1cccc(CNC(=O)Cn2cc3c(n2)-c2c(oc(C(=O)N4CCCC4)c2C)CC3)c1OC`, the “growth rescue (activation)” value was inactive: 18.3%.
In the case of `COc1ccc(N2CCN(C(CNC(=O)C3CCCCC3)c3cccnc3)CC2)cc1` (stereo unspecified), the Potency is reported as inconclusive: 31.6 µM [activator, partial curve, poor fit].
For `Cc1ccc(S(=O)(=O)Nc2cc3c(cc2C)n(C)c(=O)c(=O)n3C)cc1`, the “growth rescue (activation)” value was inactive: 14.5%.
With `COc1ccccc1C(=O)NC1CCCCCCC1` the “growth rescue (activation)” value was inactive: 4.07%.
For `CC(O)(c1cccc(F)c1)c1nc(-c2ccccc2)cs1` (stereo unspecified), the “growth rescue (activation)” value was inactive: -13.3%.
In the case of `NC(=O)COC(=O)c1ccc(Cl)c(S(=O)(=O)N(Cc2ccccc2)c2ccc(Cl)cc2)c1`, the Potency is reported as inconclusive: 28.2 µM [activator, single point].
With `COc1ccccc1NC(=O)C1=C(C)Nc2c(C(=O)Nc3ccc(F)cc3)cnn2C1c1ccc(Cl)cc1` (stereo unspecified) the “growth rescue (activation)” value was inactive: 41.1%.
For `Clc1ccc(CSc2nnc(-c3ccccn3)n2Cc2ccco2)cc1Cl`, the Potency was inconclusive: 39.8 µM [activator, single point].
In the case of `CCN(CC)c1ccc(C(=O)OCC(=O)Nc2ccc3[nH]c(=O)[nH]c3c2)cc1`, the Potency is reported as inconclusive: 35.5 µM [activator, partial curve, poor fit].
For `O=C(NCc1ccc2c(c1)CCN2C(=O)c1ccc(F)cc1)c1ccc(Br)o1`, the “growth rescue (activation)” value was inactive: -2.12%.
With `CC1CN(C(=O)c2cccc(COc3ccccc3Cl)c2)CC(C)O1` (stereo unspecified) the “growth rescue (activation)” value was inactive: 13.4%.
In the case of `COc1cc(C(CC(=O)N2CCCC2)c2c(OC)cc(OC)c3c(-c4ccccc4)cc(=O)oc23)cc(OC)c1OC` (stereo unspecified), the Potency is reported as inconclusive: 44.7 µM [activator, single point].
With `CC(C)c1ccc(C2CC(=O)c3cnc(NC(=O)c4ccco4)nc3C2)cc1` (stereo unspecified) the Potency was inconclusive: 15.8 µM [activator, partial curve, poor fit].
For `Cc1ccccc1CSc1cn(CCNC(=O)c2cccs2)c2ccccc12`, the Potency was inconclusive: 39.8 µM [activator, single point].
In the case of `COc1ccccc1C(C)NC(=O)Cc1ccc(S(=O)(=O)N2CCOCC2)s1` (stereo unspecified), the “growth rescue (activation)” value is reported as inactive: 6.9%.
For `COc1ccc2ccccc2c1/C=N/NC(=O)c1cc(C)[nH]n1`, the Potency was inconclusive: 5.01 µM [activator, single point].
In the case of `Nc1nonc1-n1nnc(C(=O)N/N=C/c2ccc(Br)cc2)c1-c1ccc2c(c1)OCO2`, the “growth rescue (activation)” value is reported as inactive: 12.1%.
In the case of `CCOc1c(Br)cc(C(N)=O)cc1OCc1ccccc1`, the “growth rescue (activation)” value is reported as inactive: 1.21%.
In the case of `O=C(Nc1cccnc1)C1Cc2c(-c3ccccc3Oc3ccccc3)ccnc2O1` (stereo unspecified), the “growth rescue (activation)” value is reported as inactive: 31.1%.
In the case of `COc1ccc(OC)c(NC(=O)c2cc(-c3ccc(C)cc3O)n[nH]2)c1`, the Potency is reported as inconclusive: 35.5 µM [activator, partial curve, poor fit].
In the case of `O=C(c1ccc2noc(-c3ccccc3)c2c1)N1CCN(c2ccccc2)CC1`, the Potency is reported as inconclusive: 28.2 µM [activator, partial curve, poor fit].
In the case of `CCOC(=O)c1cc2c(ccn2C)n1CC(=O)N1CCN(c2ccccc2)CC1`, the Potency is reported as inconclusive: 31.6 µM [activator, single point].
With `CC(C)(C)NC(=O)C(c1ccc(C#N)cc1)n1c(=O)c(-c2cc3ccccc3[nH]2)nc2ccccc21` (stereo unspecified) the Potency was inconclusive: 35.5 µM [activator, single point].
In the case of `O=C(Nc1cccc(NC(=O)N2CCN(c3ccccc3)CC2)c1)N1CCN(c2ccccc2)CC1`, the Potency is reported as inconclusive: 14.1 µM [activator, partial curve, poor fit].
For `COc1cccc2sc(N(CCCN(C)C)C(=O)CCS(=O)(=O)c3ccccc3)nc12`, the Potency was inconclusive: 17.8 µM [activator, partial curve, poor fit].
With `COc1ccc(C2C(C(=O)c3ccco3)=C(O)C(=O)N2CCc2ccccc2)cc1OC` (stereo unspecified) the Potency was inconclusive: 31.6 µM [activator, partial curve, poor fit].
With `CCOc1ccc(CNS(=O)(=O)c2ccc3[nH]c4c(c3c2)CCCC4)cc1OC` the Potency was inconclusive: 20 µM [activator, partial curve].
In the case of `CCOC(=O)c1sc(NCCNc2nc(C)c(C(=O)OCC)s2)nc1C`, the “growth rescue (activation)” value is reported as inactive: -5.04%.
In the case of `CCOC(=O)C1=C(c2ccccc2)NC(N)=NC1c1ccc(OCc2ccc(C(=O)OC)cc2)cc1` (stereo unspecified), the Potency is reported as active: 25.1 µM.
For `CC(=O)c1ccc(N(C(=O)Cc2c[nH]c3ccccc23)C(C(=O)NC2CCCCC2)c2cccs2)cc1` (stereo unspecified), the Potency was inconclusive: 22.4 µM [activator, partial curve, poor fit].
For `COc1cccc(-c2cn3c(n2)sc2cc(C(=O)NCc4cccs4)ccc23)c1`, the “growth rescue (activation)” value was inactive: -5.38%.
For `O=C(CN[C@@H](Cc1c[nH]c2ccccc12)C(=O)NCCc1c[nH]c2ccccc12)NC1CCCCC1`, the Potency was inconclusive: 14.1 µM [activator, partial curve, poor fit].
In the case of `CCOC(=O)Nc1ccc2c(CN3CCN(S(=O)(=O)c4ccccc4)CC3)cc(=O)oc2c1`, the Potency is reported as inconclusive: 22.4 µM [activator, partial curve, poor fit].
In the case of `CCNc1ccc(N=Nc2c(C)n(C)n(-c3ccccc3)c2=O)cc1`, the Potency is reported as inconclusive: 10 µM [activator, partial curve, poor fit].
For `CCCC(=O)NC(c1cccc([N+](=O)[O-])c1)c1ccc2cccnc2c1O` (stereo unspecified), the “growth rescue (activation)” value was inactive: -13.5%.
With `Cc1c(CCOC(=O)CC23CC4CC(CC(C)(C4)C2)C3)sc[n+]1CC(=O)c1ccccc1` the Potency was inconclusive: 14.1 µM [activator, partial curve].
In the case of `CCOc1ccc(-n2c(Cc3ccccc3)nnc2SCc2nc(-c3ccccc3C)no2)cc1`, the Potency is reported as inconclusive: 10 µM [activator, full curve, poor fit].
In the case of `C#CCOCCOCCOCCNc1nc(N2CCN(C(=O)CCCCCCCCCCNC(=O)[C@H](CCCCN)n3cc(C[C@@H](C)CC)nn3)CC2)nc(N2CCN(C(=O)CCCCCCCCCCNC(=O)[C@H](CCCCN)n3cc(C[C@@H](C)CC)nn3)CC2)n1`, the Potency is reported as inconclusive: 15.8 µM [activator, partial curve, poor fit].
For `CCS(=O)(=O)N1CCc2cc(C(=O)N3CCN(c4cccc(C(F)(F)F)c4)CC3)ccc21`, the Potency was inconclusive: 25.1 µM [activator, partial curve, poor fit].
With `Cc1nc(N)sc1-c1csc(Nc2ccc(S(N)(=O)=O)cc2)n1` the Potency was inconclusive: 28.2 µM [activator, single point].
In the case of `O=C(O)C(Cc1ccccc1)N1C(=O)c2ccccc2C1=O` (stereo unspecified), the Potency is reported as inconclusive: 22.4 µM [activator, partial curve, poor fit].
For `CC(C)CN(C(=O)CSc1nncn1-c1ccccc1)c1c(N)n(CC(C)C)c(=O)[nH]c1=O`, the Potency was inconclusive: 35.5 µM [activator, single point].
In the case of `CCOC(=O)[C@]12CCCC=C1N(CCCOC)C(=O)[C@@H]2CC(=O)NCC1CCCCC1`, the “growth rescue (activation)” value is reported as inactive: 19.5%.
In the case of `COC[C@H]1CCCN1c1ccc2c(c1)O[C@H](COCc1ccccc1)CN([C@H](C)c1ccccc1)S2(=O)=O`, the Potency is reported as inconclusive: 8.91 µM [activator, full curve].
For `C[C@H]1CN([C@@H](C)CO)C(=O)c2cccc(NC(=O)Nc3ccc(C(F)(F)F)cc3)c2O[C@@H]1CN(C)Cc1ccc(Cl)c(Cl)c1`, the Potency was inconclusive: 44.7 µM [activator, single point].
With `Clc1ccc(Cl)c2sc(N3CCCC3)nc12` the “growth rescue (activation)” value was inactive: 4.52%.
In the case of `COc1ccccc1NC(=O)C1=C(C)NC(=O)NC1c1ccc(C)cc1` (stereo unspecified), the “growth rescue (activation)” value is reported as inactive: -9.79%.
For `O=C(CCC(=O)N1CC2CCCN2c2ccccc21)NCc1ccccc1F` (stereo unspecified), the “growth rescue (activation)” value was inactive: 20.8%.
In the case of `O=C(OCCOc1cccc(Cl)c1)c1ccc(F)c(S(=O)(=O)N2CCOCC2)c1`, the Potency is reported as inconclusive: 50.1 µM [activator, single point].
In the case of `COc1ccc(CNC(=O)O[C@H]2C[C@@H]3C(=O)N(c4ccccc4)C(=O)[C@@H]3[C@@H]3CN(S(=O)(=O)c4ccc(C)cc4)C[C@]23O)cc1OC`, the Potency is reported as inconclusive: 22.4 µM [activator, single point].
In the case of `N#CCCn1cc(/C=N/NC(N)=S)c(-c2ccc(-c3ccccc3)cc2)n1`, the Potency is reported as inconclusive: 50.1 µM [activator, single point].
In the case of `O=C(NCc1nc2ccccc2[nH]1)C1=C[C@H](c2ccc(C(F)(F)F)cc2)C[C@H](OCc2ccc(CO)cc2)O1`, the Potency is reported as active: 25.1 µM.
In the case of `CCC(C)Cn1c(COc2ccc(OC)cc2)nc2ccccc21` (stereo unspecified), the “growth rescue (activation)” value is reported as inactive: -8.28%.
With `CN(Cc1ccccc1)C(=O)c1ccc(COc2ccccc2)cc1` the Potency was inconclusive: 35.5 µM [activator, partial curve, poor fit].
